Reference: the supplement of paper PMC12217912
The list shows a part of the results. Sequences were assembled here from the parent chain. Values near 0.05 are background.

B1: TEV protease; numbered along this chain (parent)
chain: MGESLFKGPRDYNPISSSICHLTNESDGHTTSLYGIGFGPFIITNKHLFRRNNGTLVVQSLHGVFKVKDTTTLQQHLVDGRDMIIIRMPKDFPPFPQKLKFREPQREERICLVTTNFQTKSMSSMVSDTSCTFPSGDGIFWKHWIQTKDGQCGSPLVSTRDGFIVGIHSASNFTNTNNYFTSVPKNFMELLTNQEAQQWVSGWRLNADSVLWGGHKVFMVKPEEPFQPVKEATQL

Variants of: B1
Assay: raw area under fraction-flipped curve 0-4 h after induction (AUC4h, not background-subtracted), DNA-recorder readout of cleavage of the substrate (dimensionless); higher = more cleavage of the substrate by the protease variant
Conditions: temperature: 34 °C; time window: 0-4 h after rhamnose induction
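Also: Bxb1 expression induced with 0.2% (w/v) L-rhamnose at OD600 near 0.5, cultures sampled hourly, flipped fraction per protease–substrate barcode pair counted by paired-end Illumina sequencing.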

| Variant | area with substrate ENLFFQS | area with substrate ENLKFQS | area with substrate ENLNFQS | area with substrate ENLVFQS | area with substrate ENLWFQS | area with substrate ENLHFQS | area with substrate ENLQFQS | area with substrate ENLGFQS | area with substrate ENLLFQS | area with substrate ENLMFQS |
| --- | --- | --- | --- | --- | --- | --- | --- | --- | --- | --- |
| I145H | 0.0726 | 0.0775 | 0.0619 | 0.08 | 0.0536 | – | – | – | – | – |
| Q146L | 0.124 | 0.101 | 0.0733 | – | – | 0.0634 | 0.0775 | – | – | – |
| G153E | 0.0619 | 0.0621 | – | – | – | 0.0527 | 0.0418 | 0.0742 | – | – |
| S154Q | 0.0919 | – | – | – | – | 0.0701 | 0.0592 | – | 0.0684 | 0.0543 |
| I167H | 0.1 | – | 0.0475 | 0.0474 | 0.0566 | – | 0.0681 | – | – | 0.0478 |
| N172K | 0.0461 | 0.0645 | – | – | – | – | – | – | – | – |
| N172Y | 0.058 | 0.0559 | – | 0.0651 | – | 0.0656 | 0.0674 | – | – | – |
| N175W | 0.0911 | 0.0705 | – | – | – | – | – | – | – | – |
| N178W | 0.109 | – | – | – | – | – | – | – | 0.0868 | – |
| F180Q | 0.0549 | 0.0456 | – | – | – | – | – | – | 0.061 | – |
| G213N | 0.0664 | – | – | – | – | – | – | – | – | – |
| V217R | 0.058 | 0.0696 | 0.0506 | – | 0.0685 | – | – | – | – | – |
| F6K | – | 0.0764 | 0.0683 | 0.0674 | – | 0.0667 | – | 0.0633 | – | – |
| P93R | – | – | – | – | – | – | 0.0712 | 0.0448 | – | – |
| Q197F | – | 0.0776 | 0.0684 | – | – | – | 0.054 | 0.0709 | – | 0.0738 |
| E223G | – | – | 0.0484 | – | – | 0.0602 | – | – | – | – |
| I164K | – | – | 0.0664 | – | 0.0566 | – | – | – | 0.0722 | – |
| G8E | – | 0.0785 | – | – | – | – | – | – | – | – |
| G35N | – | 0.044 | – | – | – | – | 0.0391 | – | 0.0361 | 0.0299 |
| I84P | – | – | 0.0239 | – | – | – | – | – | 0.0284 | – |

Same assay, conditions: temperature: 34 °C; time window: 0-4 h after rhamnose induction

| Variant | area with substrate ENLPFQS | area with substrate ENLRFQS | area with substrate ENLSFQS | area with substrate ENLIFQS | area with substrate ENLTFQS |
| --- | --- | --- | --- | --- | --- |
| S154Q | 0.0052 | – | – | – | – |
| I167H | 0.064 | 0.0698 | 0.0511 | – | – |
| N172K | 0.0663 | – | 0.0746 | 0.0695 | – |
| N175W | – | – | – | 0.0713 | – |
| F180Q | 0.0392 | – | 0.0227 | – | – |
| G213N | – | 0.0413 | – | – | – |
| V217R | 0.0486 | 0.0826 | 0.0657 | – | 0.0522 |
| F6K | 0.0798 | 0.065 | 0.0561 | – | – |
| P93R | – | 0.0826 | – | 0.091 | – |
| Q197F | – | 0.0769 | 0.0634 | – | 0.0845 |
| I164K | – | 0.0519 | – | 0.0356 | – |
| F92R | – | – | 0.0382 | – | – |
